Results published in a collection of fitness landscapes (doi:10.1126/science.1257360).
The other results are listed elsewhere or left out.

B1: PhoQ; a variant is named by its letters at X, in order, P23837 (parent)
chain: MKKLLRLFFPLSLRVRFLLATAAVVLVLSLAYGMVALIGYSVSFDKTTFRLLRGESNLFYTLAKWENNKLHVELPENIDKQSPTMTLIYDENGQLLWAQRDVPWLMKMIQPDWLKSNGFHEIEADVNDTSLLLSGDHSIQQQLQEVREDDDDAEMTHSVAVNVYPATSRMPKLTIVVVDTIPVELKSSYMVWSWFIYVLSANLLLVIPLLWVAAWWSLRPIEALAKEVRELEEHNRELLNPATTRELTSLVRNLNRLLKSERERYDKYRTTLTDLTHSLKTPLXXLQXXLRSLRSEKMSVSDAEPVMLEQISRISQQIGYYLHRASMRGGTLLSRELHPVAPLLDNLTSALNKVYQRKGVNISLDISPEISFVGEQNDFVEVMGNVLDNACKYCLEFVEISARQTDEHLYIVVEDDGPGIPLSKREVIFDRGQRVDTLRPGQGVGLAVAREITEQYEGKIVAGESMLGGARMEVIFGRQHSAPKDE

Variants of: B1
Assay: enrichment ratio after two sorts for PhoP signalling (ratio (wild type AVST 3.29)); higher = more functional
Conditions: with PhoP (E. coli)

Row | Variant | enrichment ratio
1 | RGWM | ≤ 0.25
2 | KSQA | ≤ 0.25
3 | EESA | ≤ 0.25
4 | APIY | ≤ 0.25
5 | KCTH | ≤ 0.25
6 | VWCK | ≤ 0.25
7 | VADW | ≤ 0.25
8 | RKHQ | ≤ 0.25
9 | TQFD | ≤ 0.25
10 | GTSD | ≤ 0.25
11 | AEWF | ≤ 0.25
12 | GPCP | ≤ 0.25
13 | YVTH | 0.76
14 | MIMA | ≤ 0.25
15 | FAKF | ≤ 0.25
16 | TGPE | ≤ 0.25
17 | NHPA | ≤ 0.25
18 | TQVP | ≤ 0.25
19 | SCTV | 9.96
20 | MHYV | ≤ 0.25
21 | PPRF | ≤ 0.25
22 | KPPE | ≤ 0.25
23 | DWFN | ≤ 0.25
24 | LVQH | ≤ 0.25

Row | Variant | enrichment ratio
25 | TLSN | 9.08
26 | INHR | ≤ 0.25
27 | ERFE | ≤ 0.25
28 | VNET | ≤ 0.25
29 | ELII | ≤ 0.25
30 | ATSF | 11.9
31 | SLVQ | 0.637
32 | SHDF | ≤ 0.25
33 | KPTH | ≤ 0.25
34 | FFMD | ≤ 0.25
35 | PANP | ≤ 0.25
36 | GHQV | ≤ 0.25
37 | PHWM | ≤ 0.25
38 | GNDG | ≤ 0.25
39 | SPQV | ≤ 0.25
40 | ASKN | ≤ 0.25
41 | NYCD | ≤ 0.25
42 | QRHK | ≤ 0.25
43 | LTKG | ≤ 0.25
44 | PDMA | ≤ 0.25
45 | AVLY | 0.623
46 | HYSP | ≤ 0.25
47 | DCWN | ≤ 0.25
48 | SMMS | 14.6

Row | Variant | enrichment ratio
49 | VFCP | ≤ 0.25
50 | HMLD | ≤ 0.25
51 | KTAN | ≤ 0.25
52 | GSNI | ≤ 0.25
53 | SVGC | 0.96
54 | GDPP | ≤ 0.25
55 | KTLS | ≤ 0.25
56 | FVAP | ≤ 0.25
57 | EQAY | ≤ 0.25
58 | LKCR | ≤ 0.25
59 | QIKK | ≤ 0.25
60 | WKMP | ≤ 0.25
61 | VPKN | ≤ 0.25
62 | ADFV | ≤ 0.25
63 | HHYL | ≤ 0.25
64 | PWNY | ≤ 0.25
65 | TCVM | 0.289
66 | NALY | ≤ 0.25
67 | KFGS | ≤ 0.25
68 | FLYC | ≤ 0.25
69 | KILP | ≤ 0.25
70 | PRSS | ≤ 0.25
71 | YMFR | ≤ 0.25
72 | VMFC | ≤ 0.25

Row | Variant | enrichment ratio
73 | PLFL | ≤ 0.25
74 | EVGD | ≤ 0.25
75 | RKYG | ≤ 0.25
76 | MFYV | ≤ 0.25
77 | YGGP | ≤ 0.25
78 | HLFL | ≤ 0.25
79 | QHWI | ≤ 0.25
80 | MSPR | ≤ 0.25
81 | KMSK | ≤ 0.25
82 | SPEA | ≤ 0.25
83 | ECSQ | ≤ 0.25
84 | TYNG | ≤ 0.25
85 | YGMG | 0.474
86 | IWNE | ≤ 0.25
87 | RHNV | ≤ 0.25
88 | VLFW | ≤ 0.25
89 | LSFG | ≤ 0.25
90 | KVAE | ≤ 0.25
91 | LFTK | ≤ 0.25
92 | QYEP | ≤ 0.25
93 | NTFE | ≤ 0.25
94 | EKEE | ≤ 0.25
95 | YEMC | ≤ 0.25
96 | LWVY | ≤ 0.25

Row | Variant | enrichment ratio
97 | EALD | ≤ 0.25
98 | QGGT | 8.36
99 | NKFD | ≤ 0.25
100 | STYK | ≤ 0.25
101 | HNKK | ≤ 0.25
102 | IVQL | ≤ 0.25
103 | GDPR | ≤ 0.25
104 | TQDM | ≤ 0.25
105 | NHFG | ≤ 0.25
106 | ELPG | ≤ 0.25
107 | SHFK | ≤ 0.25
108 | HREK | ≤ 0.25
109 | MKSP | ≤ 0.25
110 | WYVT | ≤ 0.25
111 | MLLA | ≤ 0.25
112 | GPGE | ≤ 0.25
113 | MLLG | ≤ 0.25
114 | ERYP | ≤ 0.25
115 | HPFL | ≤ 0.25
116 | FIMV | 1.48
117 | FTHC | ≤ 0.25
118 | ADSE | ≤ 0.25
119 | VKYL | ≤ 0.25
120 | LQFV | ≤ 0.25

Row | Variant | enrichment ratio
121 | GKTL | ≤ 0.25
122 | EDSE | ≤ 0.25
123 | WYFK | ≤ 0.25
124 | FSKG | ≤ 0.25
125 | WDWG | ≤ 0.25
126 | NQIA | ≤ 0.25
127 | YITF | ≤ 0.25
128 | RRTM | ≤ 0.25
129 | EFTE | ≤ 0.25
130 | GEHD | ≤ 0.25
131 | IDWW | ≤ 0.25
132 | PYSW | ≤ 0.25
133 | RVPQ | ≤ 0.25
134 | KPAL | ≤ 0.25
135 | WSLI | 6.6
136 | FISL | ≤ 0.25
137 | EHPK | ≤ 0.25
138 | IART | ≤ 0.25
139 | SHIR | ≤ 0.25
140 | DICM | ≤ 0.25
141 | TFSD | ≤ 0.25
142 | PEFI | ≤ 0.25
143 | FRVM | ≤ 0.25
144 | KARA | ≤ 0.25

Row | Variant | enrichment ratio
145 | AYQH | ≤ 0.25
146 | FTGV | ≤ 0.25
147 | QYCA | ≤ 0.25
148 | YSYY | ≤ 0.25
149 | QAWI | ≤ 0.25
150 | PCLQ | ≤ 0.25
151 | IQIH | ≤ 0.25
152 | EDRS | ≤ 0.25
153 | TIFL | ≤ 0.25
154 | SYPA | ≤ 0.25
155 | PHKH | ≤ 0.25
156 | KLCQ | ≤ 0.25
157 | IDLI | ≤ 0.25
158 | TFFR | ≤ 0.25
159 | VDGF | ≤ 0.25
160 | VVRI | ≤ 0.25
161 | VNLR | ≤ 0.25
162 | PEYC | ≤ 0.25
163 | YNKC | ≤ 0.25
164 | NVLA | ≤ 0.25
165 | PTPL | ≤ 0.25
166 | HRPV | ≤ 0.25
167 | EQWL | ≤ 0.25
168 | VNGY | ≤ 0.25

Row | Variant | enrichment ratio
169 | GPHC | ≤ 0.25
170 | TIRL | 1.25
171 | NHIR | ≤ 0.25
172 | WPYF | ≤ 0.25
173 | IYPN | ≤ 0.25
174 | PDYR | ≤ 0.25
175 | CNSI | 7.37
176 | DVHC | ≤ 0.25
177 | GGFI | ≤ 0.25
178 | ITKY | ≤ 0.25
179 | LIHE | ≤ 0.25
180 | EYMQ | ≤ 0.25
181 | LYFD | ≤ 0.25
182 | QQFS | 2.01
183 | MFLN | ≤ 0.25
184 | QQFK | ≤ 0.25
185 | SSNP | ≤ 0.25
186 | FNAC | ≤ 0.25
187 | VKID | ≤ 0.25
188 | RTRF | ≤ 0.25
189 | HQDN | ≤ 0.25
190 | DFQS | ≤ 0.25
191 | HMKG | ≤ 0.25
192 | ENFH | ≤ 0.25

Row | Variant | enrichment ratio
193 | HGQK | ≤ 0.25
194 | MHHM | ≤ 0.25
195 | HIHK | ≤ 0.25
196 | FMGQ | ≤ 0.25
197 | LMRI | ≤ 0.25
198 | RMQF | ≤ 0.25
199 | TKTW | ≤ 0.25
200 | LVRT | ≤ 0.25
201 | DATD | ≤ 0.25
202 | MVWR | ≤ 0.25
203 | DMWG | ≤ 0.25
204 | KAQT | ≤ 0.25
205 | FKCT | ≤ 0.25
206 | HTAK | ≤ 0.25
207 | YFQM | ≤ 0.25
208 | PGRL | ≤ 0.25
209 | RADL | ≤ 0.25
210 | GSGK | ≤ 0.25
211 | DCDD | ≤ 0.25
212 | HTTM | ≤ 0.25
213 | RCAV | ≤ 0.25
214 | RQHR | ≤ 0.25
215 | DFDF | ≤ 0.25
216 | GCTR | ≤ 0.25

Row | Variant | enrichment ratio
217 | KEGS | ≤ 0.25
218 | LMRC | ≤ 0.25
219 | IELD | ≤ 0.25
220 | MYVS | ≤ 0.25
221 | NQAP | ≤ 0.25
222 | EKAD | ≤ 0.25
223 | LEDT | ≤ 0.25
224 | YIRG | ≤ 0.25
225 | YCEK | ≤ 0.25
226 | DYVG | ≤ 0.25
227 | PQVV | ≤ 0.25
228 | TMIF | ≤ 0.25
229 | TNLF | 0.522
230 | RWSV | ≤ 0.25
231 | YHFC | ≤ 0.25
232 | RIIM | ≤ 0.25
233 | SWVD | ≤ 0.25
234 | HKCQ | ≤ 0.25
235 | TMHF | 1.51
236 | DFWG | ≤ 0.25
237 | YMIW | ≤ 0.25
238 | NRER | ≤ 0.25
239 | YDCF | 0.265
240 | LQHE | ≤ 0.25

Row | Variant | enrichment ratio
241 | VDRL | ≤ 0.25
242 | ARYC | ≤ 0.25
243 | IRTA | ≤ 0.25
244 | VRCA | ≤ 0.25
245 | MGVN | ≤ 0.25
246 | GYLE | ≤ 0.25
247 | TFRG | ≤ 0.25
248 | DNKR | ≤ 0.25
249 | LLGY | ≤ 0.25
250 | IARP | ≤ 0.25
251 | FWEL | ≤ 0.25
252 | VREA | ≤ 0.25
253 | YNEW | ≤ 0.25
254 | SYML | 0.252
255 | FYDA | ≤ 0.25
256 | NGEY | ≤ 0.25
257 | NWYG | ≤ 0.25
258 | LLIR | ≤ 0.25
259 | GSPA | ≤ 0.25
260 | KVLE | ≤ 0.25
261 | MACP | ≤ 0.25
262 | IEDQ | ≤ 0.25
263 | WLYH | ≤ 0.25
264 | LLFV | ≤ 0.25

Row | Variant | enrichment ratio
265 | SWEG | ≤ 0.25
266 | RPWT | ≤ 0.25
267 | HPFM | ≤ 0.25
268 | FRRH | ≤ 0.25
269 | RRGR | ≤ 0.25
270 | SHCC | 6.79
271 | ILCW | ≤ 0.25
272 | PGFI | ≤ 0.25
273 | YDRW | ≤ 0.25
274 | DQNL | ≤ 0.25
275 | ACMA | 34.1
276 | IFPQ | 1.04
277 | WIVQ | ≤ 0.25
278 | DWGF | ≤ 0.25
279 | GCIL | 10.2
280 | WWVI | ≤ 0.25
281 | PPAP | ≤ 0.25
282 | VWQY | ≤ 0.25
283 | SRAQ | ≤ 0.25
284 | EVQK | ≤ 0.25
285 | HMQT | ≤ 0.25
286 | FNVS | ≤ 0.25
287 | PDHY | ≤ 0.25
288 | EARL | ≤ 0.25

Row | Variant | enrichment ratio
289 | QEKG | ≤ 0.25
290 | VELA | ≤ 0.25
291 | QFLP | ≤ 0.25
292 | HGTV | ≤ 0.25
293 | HPCT | ≤ 0.25
294 | MGRA | ≤ 0.25
295 | AHMD | ≤ 0.25
296 | RIVN | ≤ 0.25
297 | SYNQ | ≤ 0.25
298 | KVIW | ≤ 0.25
299 | VFRI | ≤ 0.25
300 | IYGT | ≤ 0.25
301 | DQAN | ≤ 0.25
302 | SDLC | 6.34
303 | TSYG | 6.41
304 | FKRM | ≤ 0.25
305 | QKIM | ≤ 0.25
306 | QLRI | ≤ 0.25
